Reference: the supplement of paper PMC3334620
The full ranking holds about 33,000 sequences; the median of “E-score (-0.5 to 0.5)” is about -0.054, and the highest 2% start at about 0.35. This is one part of the list.

Biological target: T1, Stb5 (UniProt P38699)
T1 sequence: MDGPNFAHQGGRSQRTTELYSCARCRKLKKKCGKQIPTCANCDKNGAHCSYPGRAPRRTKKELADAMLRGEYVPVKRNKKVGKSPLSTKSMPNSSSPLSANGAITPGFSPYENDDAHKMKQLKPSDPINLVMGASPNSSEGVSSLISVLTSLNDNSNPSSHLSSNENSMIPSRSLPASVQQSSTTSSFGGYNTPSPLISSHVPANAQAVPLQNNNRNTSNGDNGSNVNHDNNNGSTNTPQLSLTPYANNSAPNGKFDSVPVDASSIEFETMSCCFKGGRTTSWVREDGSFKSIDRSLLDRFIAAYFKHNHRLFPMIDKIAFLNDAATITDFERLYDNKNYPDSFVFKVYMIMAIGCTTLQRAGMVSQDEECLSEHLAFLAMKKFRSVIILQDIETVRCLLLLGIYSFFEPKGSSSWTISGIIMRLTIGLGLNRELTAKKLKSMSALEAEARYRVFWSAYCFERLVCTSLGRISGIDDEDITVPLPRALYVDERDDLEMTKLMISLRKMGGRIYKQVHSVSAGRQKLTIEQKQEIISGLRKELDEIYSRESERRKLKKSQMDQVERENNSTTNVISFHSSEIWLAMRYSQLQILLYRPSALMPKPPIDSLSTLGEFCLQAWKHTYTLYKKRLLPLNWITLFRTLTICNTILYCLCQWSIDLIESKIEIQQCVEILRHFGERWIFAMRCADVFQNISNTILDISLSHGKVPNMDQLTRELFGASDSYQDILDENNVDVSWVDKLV
Experiment: PBM E-score (8-mer binding enrichment) (E-score (-0.5 to 0.5)); higher = stronger / more preferred TF binding; most listed sequences are background and not binding sites
Conditions: protein concentration: 200 nM; construct: GST-full length
In short: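 Detection of bound protein used fluorescent anti-GST, with scans normalised by masliner. The proteins were GST-tagged yeast transcription factors applied at about 100-200 nM to universal all-10-mer Agilent arrays made double-stranded by primer extension. Each ungapped eight-base word, pooled with its reverse complement, was scored with an E-score from the Universal PBM Analysis Suite.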

Sequence | PBM E-score
AAAGTAAT | -0.00491
GAGATCAC | -0.0724
TGCGCAAA | -0.158
AACACACA | -0.174
TCACAGCA | -0.201
AGCGACCG | 0.121
AACGGCGG | 0.304
CAACAGGG | -0.045
CTTGTTCA | -0.202
CCGTACGG | 0.199
AAAGTATA | -0.0997
ACAGTGGG | -0.0576
ATAACGAA | -0.0562
CAAGGTTA | -0.22
CAGACCAA | -0.144
ACCTCCGC | 0.342
CAAGCACA | -0.276
AATAATTG | -0.164
ATTGGCTA | -0.0357
CTTTATCC | 0.169
GTAACGTA | -0.118
CTCGGCAA | 0.0719
ACCGAAGA | 0.162
CAAGCAAC | 0.0508
AATTCTAG | -0.145

Sequence | PBM E-score
AATCAATT | -0.151
AGGCACTA | 0.111
AGGATACC | -0.125
AGCTAGCG | 0.0888
ATACGTCC | 0.295
AGTTTAGA | 0.206
CCTATAAG | -0.0382
AGGTGGAA | -0.0858
ACAGATCC | 0.114
ACAAGTCG | -0.113
AAACACGT | -0.0873
GAAGTCCC | 0.0505
GACGGGAA | 0.158
AGATTTCG | -0.0523
CATTTCTA | 0.0892
AGAGTTGA | -0.138
GAACCCAC | -0.106
TGTACCAA | -0.128
ACCGGCCG | 0.297
CTCTGGCC | -0.208
ATGATACG | -0.143
GTGACCAA | -0.214
AGGGTGAG | -0.273
CAACTTGG | -0.0599
AGAGTACT | -0.216

Sequence | PBM E-score
CGACATTC | -0.0275
ATATCCTC | -0.156
AGGGTGAC | -0.0276
CTATATCC | 0.187
GACCTTAA | 0.0643
CGGCAAGC | -0.026
CCGCACAG | 0.182
ATTCATAA | 0.122
CTCGTGCC | -0.0401
AGGCAATG | -0.151
CCCTGGCG | 0.114
CTGCTGGA | -0.218
CCATGACA | -0.171
ACAAGCCA | -0.195
CAGTATCG | 0.0112
ATAAACTC | 0.156
ACCTATTA | -0.187
AGTCCTGC | 1e-05
CTGAGCAC | -0.197
CCCCCTGC | 0.0142
AACTATCT | -0.185
GAGGTACA | -0.168
GCAGACGC | -0.0745
AAGGGGTC | -0.265
AACTGAAT | -0.169

Sequence | PBM E-score
GCCTCCCC | 0.0301
CTCGTCGA | -0.226
GTAATCAA | -0.0189
CTATTCGC | -0.184
AGCTATTC | -0.0735
ACTTGGCT | -0.313
CACCCGAG | -0.125
GGCGCTCA | 0.0939
CTAACAGA | -0.149
GATCTCCC | -0.119
ATGCAGTC | -0.248
ACAACAAT | -0.148
TGAGTTAA | -0.155
AATAAAGG | 0.0326
AGCTCCTG | -0.18
AGAAGCCG | 0.136
CCCAAGAG | -0.153
AGGGCACC | -0.0589
GCTAGTCA | -0.126
GTGGTGTA | -0.123
AGCGACTC | -0.182
AATAAATA | 0.166
GGTGAAAA | 0.348
CGCAGAGA | -0.168
AGCATGGA | -0.248

Sequence | PBM E-score
AGCGACAG | 0.0707
CAAAATAG | -0.0506
AAAAGTCT | -0.224
AACGTAAC | -0.138
CATCAAGA | -0.0407
TGAATACA | 0.103
GGGGGCAA | 0.0433
ACTCCCTG | -0.167
CAGACCTC | -0.0421
AAGTCGTA | -0.288
ATATATCG | 0.17
CAGGGCAA | -0.261
AGTCAACA | -0.167
GGCGGCGA | 0.343
AGAGCATC | -0.00326
TACGGCGA | 0.23
GTACAATA | -0.0293
CCTATAAC | -0.0335
CCGAGTAC | 0.11
CATTCAAC | -0.128
ATTAGATG | -0.112
TTAAAGAA | -0.0293
CATCCGGC | 0.204
TAAGGGAA | -0.25
ACACCCAC | -0.0403

Sequence | PBM E-score
CCTCGGCC | 0.02
CGTTATAC | 0.112
AGTAACTA | -0.0945
CAAATAAG | -0.0124
TACCGCTA | 0.306
TAGCCGAA | -0.116
CGTGTGGA | -0.0163
CTTAGTCC | 0.137
TCACTAGA | -0.0582
AGACACTC | -0.193
AGAACCGC | 0.247
CAGTAATG | -0.281
GTCGCCGA | 0.19
GCAGTAAC | -0.0304
AACCCGTC | 0.183
ATACTCTA | 0.115
GAGACACA | -0.123
AAAAACTA | -0.107
ACTTCAAC | 0.00725
AATCACCC | -0.132
GCTGTAAC | -0.0068
AGAGGGGC | -0.192
AAAGATAC | -0.0426
ACCGCCTC | 0.313
ACAGATCT | -0.27

Sequence | PBM E-score
AAGGTCGC | 0.118
CTATTCAG | -0.222
AAGGCAAC | -0.0794
CAGATTTA | 0.0385
ACGGGACA | 0.151
GCCCAAGA | -0.114
AAGATCCT | -0.223
AATTGAGG | -0.193
ATATATCA | 0.0402
ACCAAACT | -0.18
ACCATGAA | -0.105
GTGCATAA | 0.0658
GTGGTCCA | -0.249
ATGCCAGA | -0.121
CGGGCGCC | 0.0407
AGTTGGCC | -0.13
GCTTCCAC | -0.109
AAATCGTG | -0.0622
GTGAAAGA | 0.135
TACCGCGA | 0.324
AGTAGTTG | -0.0997
CTGACCTC | -0.129
CACCTCAC | -0.0496
ATCAGAAG | -0.0945
AGGCAGCG | 0.0612

Sequence | PBM E-score
GCCGGACC | 0.281
CTTGTATC | -0.0468
TGAGTGAA | -0.173
GATGTCCA | -0.0983
CAAGGAAG | -0.0845
GAGATACC | 0.168
ATCCCTTG | 0.0142
GTAGGGCA | -0.219
CATGAGAG | -0.195
ACCCTCGC | -0.0357
ATACAATA | 0.121
GTGGATCA | -0.185
ACACCTCC | 0.0978
AGGCGTTG | -0.11
CTGATGAC | -0.108
ACCAATCT | -0.094
GCGGATGA | 0.165
AAGCAACT | -0.0296
CTATCGCC | 0.135
AACCTCCC | -0.0946
GGAATTTA | 0.196
CAGATTCC | -0.00417
CCGTTAGC | 0.217
CGCTAATC | -0.0307
AAAAAACG | -0.00301

Sequence | PBM E-score
CGCTTCAG | -0.139
GCACCTCA | -0.199
CATCTTAA | -0.0664
AAATGACG | 0.0417
CGAGGTAG | -0.00864
CTCAACGC | -0.0495
AACCTGAG | -0.0916
AGTGCATC | -0.162
ACAACCCA | -0.072
AAGGCGGA | 0.292
GTAGTTGA | -0.129
CGTCGACG | 0.17
AAGGGAGG | -0.0939
ACGTTATA | 0.0232
CCAGGATA | -0.244
CATGCGGA | 0.167
ACACACAG | -0.0846
AGTGCACC | -0.129
GTCTACTA | -0.174
